# Assay results as given in PubChem BioAssay AID686979 (National Center for Advancing Translational Sciences (NCATS), 2013).
# About 50,000 (12%) of roughly 420,000 compounds were called active. The inconclusive results got no clear call from the source; some entries with a clear call stand among them for comparison. The call rests on the fitted dose curve; in most records, active means well fitted inhibition curve with a large enough effect; inconclusive means small, poorly fitted or top-dose-only effect; inactive means flat fitted curve, though single readings scatter. Potencies of inconclusive entries are left out as doubtful fits.
# Assay: qHTS for Inhibitors of human tyrosyl-DNA phosphodiesterase 1 (TDP1): qHTS in cells in presence of CPT; further: nearly all actives have a fitted effect of over 55% in size
# Details: chicken DT40 Tdp1-/-;hTDP1 cells + 20 nM CPT, ATP luminescence, 48 h; series mostly up to 46.2 µM
# Summary of the method: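 Chicken DT40 Tdp1-/- cells complemented with human TDP1, 400 cells/well, exposed to compounds plus 20 nM camptothecin for at least 48 h at 37 C; viability read as ATP content by CellTiter-Glo luminescence.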
# Potency means the concentration at half of the fitted maximal effect; tags describe the fitted curve by direction and shape.
row,SMILES,Potency
1,Cc1c(Cl)ccc2c1NC(=O)[C@]21[C@@H]2C(=O)N(Cc3ccccc3)C(=O)[C@@H]2[C@@H]2CCCN21,"inconclusive [inhibitor, single point]"
2,COc1ccc(NC(=O)C2(C)Cc3c(-c4cccc(C(N)=O)c4)ccnc3O2)cn1 (stereo not given),active: 3.66 µM
3,CCc1ccc(S(=O)(=O)c2cnc3ccc(OC)cc3c2N2CCCC(C)C2)cc1 (stereo not given),active: 16.4 µM
4,Cc1cc(C(=O)N2CCN(c3ccc(F)cc3)CC2)c2c(C)nn(-c3cccc(Cl)c3C)c2n1,active: 20.6 µM
5,COC(C[C@H]1O[C@H]1[C@H](O)[C@H](C)OCc1ccccc1)OC,inactive
6,Cc1ccc2c(c1)NC(=O)C(CC(=O)NCCCN1CCCC1=O)O2 (stereo not given),"inconclusive [inhibitor, single point]"
7,CCOc1ccc(C(C)=O)cc1CN1C(=O)c2ccccc2S1(=O)=O,inactive
8,CC1(C)[C@@H](O)CC[C@]2(C)C3C(O)C=C4[C@H]5C[C@@](C)(CO)CC[C@]5(C)CC[C@]4(C)[C@]3(C)CC[C@@H]12 (stereo not given in full),inactive
9,COc1ccc(CN(C)CC(=O)Nc2ccccc2C(=O)NC2CC2)cc1,"inconclusive [inhibitor, single point]"
10,Cc1cc(Cl)ccc1C(=O)C1CCCN(C(=O)c2cnsn2)C1 (stereo not given),"inconclusive [inhibitor, single point]"
11,COCCN(C(=S)Nc1cccc(C)c1)C(C)c1cccnc1 (stereo not given),inactive
12,C=CC[C@H](CC(=O)N(CCO)Cc1ccccc1)C(=O)N[C@@H](C)COC(=O)[C@H](CC=C)CC(=O)OC(C)(C)C,"inconclusive [inhibitor, single point]"
13,CC1(C)Cc2c(sc(NC(=O)Cc3ccccc3)c2C#N)C(C)(C)N1,"inconclusive [inhibitor, single point]"
14,COc1cc(/C=C2\SC(=S)N(Nc3ccccc3)C2=O)ccc1O,"inconclusive [inhibitor, single point]"
15,COCCn1c(SCC(=O)Nc2cccc(OC)c2)nc2c(oc3ccccc32)c1=O,active: 5.8 µM
16,COc1ccc(CNC(=O)Cn2c(=O)nc(-c3ccccc3F)c3cc(Cl)ccc32)cc1OC,inactive
17,Cc1c(C=C(C#N)c2ccc([N+](=O)[O-])cc2)c(=O)n(-c2ccccc2)n1C,"inconclusive [inhibitor, single point]"
18,CC(C)C(=O)Nc1c(-c2ccc(Cl)cc2)c(=O)c2ccccc2n1C,inactive
19,Cc1nc(SCC(=O)NC(C)(C)C)c2c(-c3cccs3)csc2n1,inactive
20,CC1(C)NC(C)(C)/C(=C\c2cccs2)C(=O)C1=O,"inconclusive [inhibitor, single point]"
